In PubChem BioAssay AID2546 (National Center for Advancing Translational Sciences (NCATS), 2010):
Out of some 310,000 compounds screened, about 11,000 (3.5%) were called active. This list was built around the results that the source calls inconclusive (neither active nor inactive); the mix of calls is not that of the screen. Calls come from the whole dose curve; as a rule, active = well fitted inhibition curve with a large enough effect; inconclusive = small, poorly fitted or top-dose-only effect, or effect the other way; inactive = flat fitted curve, though single readings scatter. Potencies of inconclusive entries are left out as doubtful fits.
Potency is the fitted concentration of half-maximal effect; tags give direction and shape of the fitted curve.

Assay: VP16 counterscreen qHTS for inhibitors of ROR gamma transcriptional activity;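 note: Gal4-VP16 expression switched on by copper sulfate through the metallothionein promoter; nearly all actives have a fitted effect of over 50% in size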
Settings: Drosophila S2 Gal4-VP16 UAS-luciferase, luminescence, 20 h; series mostly up to 53.6 µM
In the case of `CCn1c(C)nc2cc(C(=O)n3cc(C(=O)c4cc(F)ccc4O)cn3)ccc21`, the Potency is reported as “inactive”.
With `CSc1cccc(NC(=S)NCCCN2CCN(c3ccc(F)cc3)CC2)c1` the Potency was inconclusive [inhibitor, single point].
For `O=[N+]([O-])c1c(NCCO)cc(N2CCN(Cc3ccc4c(c3)OCO4)CC2)c2nonc12`, the Potency was inconclusive [inhibitor, single point].
For `OC(COc1ccccc1F)CN1CCC(Cc2ccccc2)CC1` (stereo not drawn), the Potency was “inactive”.
In the case of `COc1ccc(Cc2noc(CN3CCCN(Cc4ccc(F)cc4)CC3)n2)cc1OC`, the Potency is reported as “inactive”.
With `CCN(C(=O)N1CCOCC1)c1ccccc1` the Potency was “inactive”.
For `CC(=O)n1cc(C(C[N+](=O)[O-])SCCN)c2ccccc21` (stereo not drawn), the Potency was inconclusive [inhibitor, single point].
For `Cc1cc(C)c(-c2cc(C(=O)Nc3c(C)n(C)n(-c4ccccc4)c3=O)[nH]n2)c(O)c1`, the Potency was inconclusive [activator, single point].
For `COC(=O)c1ccc(NC(=S)Nc2ccccn2)cc1`, the Potency was active: 1 µM.
For `CC(C)(C)c1ccc(-c2noc(CCC(=O)NCC3CCCO3)n2)cc1` (stereo not drawn), the Potency was active: 10 µM.
In the case of `C=CCn1c(C)cc(C(=O)CSc2n[nH]c(N)n2)c1C`, the Potency is reported as “inactive”.
For `Cc1ccc(-c2nc(N)sc2-c2ccc(C)cc2)cc1`, the Potency was inconclusive [inhibitor, partial curve].
With `CC1(C)Cc2c(sc3ncnc(NN)c23)CO1` the Potency was inconclusive [inhibitor, single point].
For `COc1cccc(OC)c1C(=O)NC(=S)N1CCCCC1c1cccnc1` (stereo not drawn), the Potency was “inactive”.
In the case of `N#CC1=C2N=C(N)c3c(sc4c3CCCCC4)N2C2=C(C(=O)CCC2)C1c1ccccc1` (stereo not drawn), the Potency is reported as inconclusive [inhibitor, single point].
For `CCOC(=O)c1c(NC(=S)Nc2cccnc2)sc(C)c1C`, the Potency was inconclusive [inhibitor, single point].
In the case of `COc1ccc(C2NC3=C(CCCC3)C(C#N)(C#N)C2(C#N)C#N)cc1` (stereo not drawn), the Potency is reported as inconclusive [inhibitor, single point].
With `CCc1nnc(NC(=O)CSc2ccc(-c3nc4ccc(C)cc4[nH]3)cn2)s1` the Potency was inconclusive [inhibitor, single point].
In the case of `OCC1(CCOc2ccccc2)CCN(CC2=Cc3cc(Cl)ccc3OC2)CC1`, the Potency is reported as inconclusive [inhibitor, single point].
With `O=C(O)CCCC(=O)N1CCOCCOCCOCCOCC1` the Potency was “inactive”.
For `CC(C)(C)c1ccc(/C=N/NC(=S)NC2CCCCC2)cc1`, the Potency was active: 3.16 µM.
For `CN(C)C(=O)CSc1nnc(-c2cnccn2)n1C`, the Potency was inconclusive [inhibitor, single point].
In the case of `CCOc1cc(/C=N/n2nnnc2N)ccc1OCc1c(C)no[n+]1[O-]`, the Potency is reported as inconclusive [activator, single point].
For `CC(C)c1ccc(NC(=S)N2CCN(S(=O)(=O)c3ccccc3)CC2)cc1`, the Potency was inconclusive [inhibitor, single point].
With `COc1cc(C#CC#CCN2CCCCC2)ccc1O` the Potency was inconclusive [inhibitor, single point].
With `O=C(O)CCC(=O)c1ccc2ccc3cccc4ccc1c2c34` the Potency was active: 10 µM.
In the case of `FC(F)(F)c1nnc2c(Sc3ccc(Cl)cc3)nc3ccccc3n12`, the Potency is reported as “inactive”.
In the case of `COc1cccc(C=Nc2ccc(N3CCOCC3)cc2)c1O`, the Potency is reported as “inactive”.
For `CC(=O)Nc1ccc(S(=O)(=O)Nc2cccc(C(=O)Nc3ccccc3C(=O)O)c2)cc1`, the Potency was “inactive”.
For `C/C(=N\OCC(=O)NC(C)C)c1cccs1`, the Potency was inconclusive [activator, single point].
With `COC1=C(OC)C(=O)C(CCCCCCCCCCO)=C(C)C1=O` the Potency was inconclusive [inhibitor, single point].
In the case of `Cc1sc2nc(CN3CCOCC3)[nH]c(=S)c2c1C`, the Potency is reported as “inactive”.
In the case of `Cc1oncc1C(=O)N1CCCC(CO)(Cc2ccc(F)cc2F)C1` (stereo not drawn), the Potency is reported as inconclusive [inhibitor, single point].
For `COC(=O)c1cc(Br)c(=O)n(-c2cccc(F)c2)c1`, the Potency was inconclusive [inhibitor, single point].
For `Cc1ccc(S(=O)(=O)/N=C(/NC(=S)Nc2cccc(C)c2)c2ccccc2)cc1`, the Potency was active: 12.6 µM.
With `O=C(NCc1cn2ccccc2n1)c1ccco1` the Potency was inconclusive [inhibitor, single point].
For `Cc1nn(C)c(C)c1Nc1ccc(N2C(=O)C3C4C=CC(C4)C3C2=O)cc1[N+](=O)[O-]` (stereo not drawn), the Potency was “inactive”.
With `CCOc1cc(/C=C2\CN(C)C/C(=C\c3ccc(O)c(OCC)c3)C2=O)ccc1O` the Potency was inconclusive [inhibitor, single point].
For `COc1ccccc1-c1cn(-c2ccccc2)c(=S)[nH]1`, the Potency was active: 5.62 µM.
In the case of `O=C(c1cc(COc2ccc(F)cc2F)on1)N1CC[C@@H]2CCCC[C@H]2C1`, the Potency is reported as inconclusive [inhibitor, single point].
For `O=C(NCCCN1CCOCC1)c1sc2cc([N+](=O)[O-])ccc2c1Cl`, the Potency was inconclusive [activator, partial curve, poor fit].
With `Cc1ccc(N2C(=O)C3C4C=CC(CNC(=S)N5CCN(c6cccc(C)c6)C(C)C5)(O4)C3C2=O)cc1` (stereo not drawn) the Potency was inconclusive [inhibitor, single point].
For `C=CCN1C(=O)/C(=C2/Sc3ccccc3N2CC)SC1=S`, the Potency was “inactive”.
For `Cc1ccc(O)c(Nc2ncnc3ccc([N+](=O)[O-])cc23)c1`, the Potency was “inactive”.
In the case of `Cc1cc(C)c(S(=O)(=O)N2CCCC(C(=O)NCc3cccnc3)C2)c(C)c1` (stereo not drawn), the Potency is reported as inconclusive [inhibitor, single point].
With `CN(C)C(=O)N1CCCC(C(=O)NCc2ccccc2Cl)C1` (stereo not drawn) the Potency was inconclusive [activator, single point].
For `CCOC(=O)N1CCC(NC(=O)C2CCCN(Cc3nc(-c4ccc(CC)cc4)oc3C)C2)CC1` (stereo not drawn), the Potency was inconclusive [inhibitor, single point].
With `Cc1nn(-c2ccccn2)c2c1C(c1ccsc1)C1=C(CCCC1=O)N2` (stereo not drawn) the Potency was inconclusive [inhibitor, single point].
With `O=C(NC(=S)NCCN1CCOCC1)c1ccccc1Br` the Potency was “inactive”.
For `O=C(O)c1cccc(-n2cccc2/C=C2/NC(=O)N(c3ccc(Cl)cc3)C2=O)c1`, the Potency was inconclusive [activator, single point].
With `CN(C)/C=C/C(=O)c1nnn(C2CCCCC2)c1NC1CCCCC1` the Potency was inconclusive [inhibitor, single point].
For `CCOc1ccc(NC(=S)Nc2cccc3cnccc23)cc1`, the Potency was inconclusive [inhibitor, single point].
With `CCOC(=O)c1csc(-c2ccc([N+](=O)[O-])cc2)n1` the Potency was inconclusive [inhibitor, full curve, poor fit].
In the case of `CS(=O)(=O)Nc1ccc(Cc2ccc(NS(C)(=O)=O)cc2)cc1`, the Potency is reported as inconclusive [inhibitor, single point].
In the case of `Cc1cccnc1Nc1nc(-c2ccccn2)cs1`, the Potency is reported as inconclusive [inhibitor, partial curve, poor fit].
For `CCOC(=O)N1CCC(N2CCN(Cc3ccccc3)C(CCO)C2)CC1` (stereo not drawn), the Potency was “inactive”.
In the case of `Nc1ncc(-c2ccccc2)n1CC1CCCO1` (stereo not drawn), the Potency is reported as inconclusive [inhibitor, single point].
In the case of `O=C(N/N=C\c1cccc(Cl)c1)c1n[nH]c2c1CCCC2`, the Potency is reported as inconclusive [activator, full curve].
In the case of `CCN(CC)C(=S)NC(=O)c1ccc(F)cc1`, the Potency is reported as active: 2.82 µM.
In the case of `CC1CCCCC1NC(=O)/C(C#N)=C/c1ccc(F)c(F)c1` (stereo not drawn), the Potency is reported as inconclusive [inhibitor, single point].
With `COc1ccccc1NC(=O)C1=C(C)Nc2nnnn2C1c1cc(Br)ccc1OC` (stereo not drawn) the Potency was “inactive”.
With `COc1ccc(/C=N/n2c(C3CCCCC3)n[nH]c2=S)c(OC)c1` the Potency was active: 7.08 µM.
With `C=C1C(=O)OC2C[C@@]3(C)CCCC(C)C3=CC12` (stereo partly drawn) the Potency was inconclusive [inhibitor, single point].
For `FC(F)(F)c1ccccc1-c1ccc2ncnc(NCc3cccnc3)c2c1`, the Potency was inconclusive [inhibitor, single point].
With `O=C(Cc1ccccc1Nc1c(Cl)cccc1Cl)OCO/N=[N+](\[O-])N1CCCC1` the Potency was active: 17.8 µM.
In the case of `COc1cccc(OCC(O)CN(CCO)Cc2ccccc2)c1` (stereo not drawn), the Potency is reported as “inactive”.
With `O=C(Cc1ccccc1)Nc1nc2ccccc2s1` the Potency was inconclusive [activator, full curve].
For `CC1Sc2ccc(S(=O)(=O)N3CCC(C(=O)Nc4cccc(Cl)c4)CC3)cc2NC1=O` (stereo not drawn), the Potency was inconclusive [inhibitor, single point].
In the case of `Cc1ccnc(SC2CC(=O)N(c3ccc([N+](=O)[O-])cc3)C2=O)n1` (stereo not drawn), the Potency is reported as inconclusive [inhibitor, single point].
For `COc1ccc(CC(N)C(=O)N[C@H]2[C@@H](O)[C@H](n3cnc4c(N(C)C)ncnc43)O[C@@H]2CO)cc1` (stereo partly drawn), the Potency was inconclusive [inhibitor, single point].
For `CN(C)c1ccc(NC(=S)c2ccc3ccccc3n2)cc1`, the Potency was inconclusive [inhibitor, single point].
For `CC(=O)c1ccc(C(=O)Nc2nnc(-c3ccc(Cl)cc3)o2)cc1`, the Potency was active: 2.51 µM.
With `CCCn1nc(C(=O)Oc2ccc3c(C)cc(=O)oc3c2)c2ccccc2c1=O` the Potency was “inactive”.
